From the supplement of paper PMC3334620
The full ranking holds about 33,000 sequences; the median of “E-score (-0.5 to 0.5)” is about -0.013, and the highest 2% start at about 0.3. The list shows a part of the results.

The sequences below were run against T1, Msn1 (UniProt P22148) (assay: PBM E-score (8-mer binding enrichment) (E-score (-0.5 to 0.5)); higher = stronger / more preferred TF binding; most listed sequences are background and not binding sites). Settings: protein concentration: 200 nM; construct: GST-full length.
T1 sequence: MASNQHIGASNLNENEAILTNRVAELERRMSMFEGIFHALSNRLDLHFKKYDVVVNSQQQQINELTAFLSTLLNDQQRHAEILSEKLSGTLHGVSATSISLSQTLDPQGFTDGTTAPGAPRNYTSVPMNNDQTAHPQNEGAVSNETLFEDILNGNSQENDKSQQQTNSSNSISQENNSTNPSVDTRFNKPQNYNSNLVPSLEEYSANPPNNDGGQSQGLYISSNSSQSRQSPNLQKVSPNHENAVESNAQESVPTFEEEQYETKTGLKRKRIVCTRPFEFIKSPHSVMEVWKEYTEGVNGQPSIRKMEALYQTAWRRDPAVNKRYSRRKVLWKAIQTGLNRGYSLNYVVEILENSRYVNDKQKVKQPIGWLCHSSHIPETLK
Protocol: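 Universal 'all 10-mer' protein binding microarrays (Agilent AMADID 015681) probed with GST-tagged S. cerevisiae TFs (full-length or DBD) made by in vitro transcription/translation (PURExpress), about 100-200 nM. Bound TF was detected with fluorescent anti-GST. Each ungapped 8-mer (which stands for itself and its reverse complement) is scored by the PBM enrichment score (E-score), a modified Wilcoxon-Mann-Whitney statistic from -0.5 to +0.5, computed with the Universal PBM Analysis Suite. Scale: above 0.35 generally sequence-specific binding.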

| Sequence | PBM E-score |
| --- | --- |
| ACGCTGAG | -0.0691 |
| TAGACTGA | -0.073 |
| CTTCTAAA | 0.101 |
| CGATCCAG | -0.133 |
| GTTCGGCA | 0.135 |
| CTTTTCTA | -0.00561 |
| ACGATGAT | -0.135 |
| AGGTGGAT | -0.135 |
| ATCAGTTA | 0.044 |
| AAGCGGAT | -0.0423 |
| AAGACGTA | 0.198 |
| GACTAAGA | 0.0562 |
| ATGAGGTA | -0.0565 |
| GGGTACTA | 0.0129 |
| AACGTTAG | 0.0592 |
| CACTCCTA | -0.075 |
| CGTGGCGA | -0.00234 |
| ATAAAAAA | 0.237 |
| TCCGCACA | -0.0301 |
| CTAAATTC | -0.0514 |
| CGGTTCAC | -0.107 |
| CCCGTTTC | -0.0123 |
| ATGAACAT | 0.199 |
| CAAACTAG | -0.06 |
| CAGGATAG | -0.022 |

| Sequence | PBM E-score |
| --- | --- |
| AGGTGCCC | -0.275 |
| AGAAAGAG | -0.1 |
| ATCTTGGC | 0.0935 |
| GAACAGTC | -0.142 |
| AAGTAATC | 0.00785 |
| AGTGAAAG | -0.0712 |
| ATTCTCGC | -0.175 |
| CAAGGTCA | -0.112 |
| CCATGCCA | -0.244 |
| GATACGTA | 0.0976 |
| ATCTTTCC | -0.0343 |
| ATGTGTGA | 0.0323 |
| AACATATC | 0.0631 |
| GCTCGGGA | -0.112 |
| CGGGAGAC | -0.0698 |
| TCCAGGGA | -0.0453 |
| ACAGGGCG | -0.0216 |
| CACACTCC | -0.161 |
| AAGGGCGA | -0.172 |
| AGGAGCTG | -0.233 |
| ATCCCGTG | 0.035 |
| ACTCAGGC | -0.126 |
| CCTGTCAA | -0.0852 |
| AGCACCCT | -0.15 |
| GTTATGTA | 0.0812 |

| Sequence | PBM E-score |
| --- | --- |
| GGCATGGA | -0.0347 |
| ATCCATTG | 0.0219 |
| CTGAATGC | -0.115 |
| AGCGCCAG | -0.168 |
| CGGCTGTA | -0.0853 |
| AAGATACC | 0.14 |
| AACCGAAG | 0.044 |
| AGACGTAA | 0.0947 |
| CTCCTGAA | 0.0432 |
| GCCCTGCA | -0.304 |
| CCTGCGAG | -0.177 |
| GCTAGACA | 0.212 |
| GGATAGAA | 0.0986 |
| CATTTTCG | 0.181 |
| AAGGGCGT | -0.161 |
| AGGTAACG | -0.133 |
| CACTCTCG | -0.0442 |
| ACCGAGAT | 0.22 |
| TGATTAAA | 0.143 |
| ACAGGCTA | -0.0867 |
| ATTTTAAG | 0.131 |
| CATCGCCC | -0.114 |
| CTAAACTA | -0.0839 |
| CGGTTACA | 0.0893 |
| CATTACCC | 0.0272 |

| Sequence | PBM E-score |
| --- | --- |
| CGTGATAG | 0.0377 |
| TCGAATAA | 0.0777 |
| CGCCCAAG | -0.157 |
| CTCGGTCC | -0.0715 |
| CCAGACAC | 0.0047 |
| CGAGGGGC | -0.239 |
| CCCACTCG | -0.125 |
| ATTAGTTC | 0.0351 |
| ACCTTTCC | -0.051 |
| TAGGCTGA | -0.0437 |
| AAAAGTTG | 0.0736 |
| TAGGGCCA | -0.166 |
| ACCGTCAG | -0.0901 |
| CAAACTCA | -0.00805 |
| CGCCAATC | -0.0945 |
| CGCAGGAC | -0.139 |
| CATATATG | 0.113 |
| TACTTGGA | 0.281 |
| ATACAGCA | 0.103 |
| CAGCCGGG | -0.13 |
| GTGACGGA | -0.0631 |
| GGCCCTGA | -0.251 |
| TATGTTAA | 0.0935 |
| CGCGACTA | 0.0078 |
| CGCTCTAA | -0.105 |

| Sequence | PBM E-score |
| --- | --- |
| GACGAGAC | -0.0871 |
| AAAAGACT | -0.169 |
| AATGTCAT | 0.46 |
| TAGAGTCA | -0.295 |
| ATGCTCCC | -0.341 |
| GTTTTCCA | 0.102 |
| ACTAGCGG | -0.0482 |
| GGTGAAGA | -0.0988 |
| ATCGGACG | 0.00151 |
| CAAGGAAA | -0.168 |
| CTCTGAAC | -0.225 |
| CGGATGAC | 0.0481 |
| CGCATTGA | 0.0594 |
| ATTCAGGG | -0.0252 |
| CGCTTGAC | -0.059 |
| CGTATTAC | -0.0341 |
| GACCCTAA | -0.0466 |
| GAGTTTAA | 0.134 |
| ACTTCTTC | 0.0754 |
| CCCCTCTA | -0.338 |
| CCTGCTGA | 0.00102 |
| AAGGTCAC | -0.18 |
| TCAGAAAA | -0.0388 |
| GAGCAAGC | -0.0784 |
| AACTACAG | -0.12 |

| Sequence | PBM E-score |
| --- | --- |
| AATCTAGT | 0.0987 |
| AGGGGGAA | -0.304 |
| CTCAGCAG | -0.189 |
| CGTTCACA | -0.0515 |
| CCGAACAA | 0.185 |
| AAGGTTGA | 0.0575 |
| CACCAGGA | 0.0365 |
| TACGGTGA | 0.059 |
| CGCCCTCC | -0.372 |
| AGCGGGCC | -0.14 |
| GCCAGGGC | -0.166 |
| CTCTGCCC | 0.0128 |
| AAGGACTA | -0.00885 |
| GTACGCGA | -0.032 |
| GCTATCAC | -0.0524 |
| TGGCCACA | -0.0107 |
| ATATCCGG | 0.11 |
| CCTGGTTA | -0.132 |
| ACAAATTG | 0.301 |
| TCTCAGCA | -0.0811 |
| TATTCGGA | 0.223 |
| CGACCGAC | 0.0415 |
| TGGGCGAA | -0.0188 |
| GAACCGGA | 0.0451 |
| ATCCGTTA | 0.282 |

| Sequence | PBM E-score |
| --- | --- |
| AGTAATCA | -0.0522 |
| AGGATGCA | -0.0883 |
| GAACGCAC | -0.0524 |
| ACGTCCTA | 0.354 |
| CAAAGACA | 0.361 |
| CCACTCGC | -0.106 |
| CAGTCGGG | -0.0537 |
| TACGCACA | 0.0572 |
| CGCTGGGC | -0.0718 |
| ACAAATAA | 0.307 |
| AGGTCCGC | -0.282 |
| CGATCGCA | 0.0328 |
| GGACCTGA | -0.11 |
| AAAGCTAA | 0.0573 |
| ATGCAGGG | -0.256 |
| CTAGCCAG | -0.132 |
| AAGCACAA | 0.182 |
| CAGCATTA | -0.0545 |
| AATCTCGC | 0.127 |
| AACTTTTG | 0.184 |
| GGCTATAC | -0.0759 |
| CTTCGTAC | -0.175 |
| ACCTAACT | 0.113 |
| GATGTGGA | 0.186 |
| GAATCCGA | 0.0563 |

| Sequence | PBM E-score |
| --- | --- |
| AGGTGAAC | -0.128 |
| CTACAAAC | -0.0616 |
| CCTCAACG | -0.221 |
| GACCCCCA | -0.377 |
| ATCATTCC | 0.0188 |
| CAAACATA | 0.0118 |
| ACGTGATC | 0.03 |
| ATGTTCGG | 0.112 |
| AGACCAAA | 0.11 |
| CTATACTA | 0.202 |
| GCAATTAA | 0.0675 |
| AAGGAGAG | -0.237 |
| AAGGACTC | 0.0633 |
| AAACGTAG | -0.0553 |
| AACAGTTG | 0.101 |
| ATTAGCGC | 0.00734 |
| ACCCGCCT | -0.265 |
| ATCCACTC | -0.0464 |
| TCGAGCCA | -0.0839 |
| ACCTTTTG | -0.141 |
| AGTGAGGG | -0.157 |
| CGGAAACG | -0.018 |
| CTCCAGTC | -0.165 |
| ACGGCATA | 0.101 |
| AACGTGTG | -0.0744 |

| Sequence | PBM E-score |
| --- | --- |
| ATGCTAAG | -0.00576 |
| AAGAGCCT | -0.171 |
| CTCCAATC | -0.0371 |
| ATATTGTC | 0.427 |
| CAGACACG | 0.147 |
| GCCCAACC | -0.0372 |
| TCTTAAGA | 0.079 |
| CTCGGAGA | 0.016 |
| AAATCGGG | 0.0845 |
| ATATCTAA | 0.133 |
| ACGCTCAC | 0.236 |
| GTCAGATA | 0.0788 |
| CTGATTGC | -0.184 |
| GATACAGC | -0.00967 |
| ATCATAGC | 0.0218 |
| AGAACAGC | -0.151 |
| GAACTACC | 0.013 |
| CTAATCTA | -0.0307 |
| CTGCTGAC | -0.0808 |
